From the antibiotic and cytotoxicity screens of Wong et al. (2023) come the findings set out here.

This is one part of the list.

One assay concerns HSkMC. The assay is described as follows: cytotoxicity call (relative viability < 0.9). Particulars: 10 µM.
The next assay deals with HepG2. In words: cytotoxicity call (relative viability < 0.9). Particulars: 10 µM.
A further assay has as its system S. aureus RN4220. The assay is described as follows: growth inhibition call (relative growth <= 0.2). Particulars: 50 µM.

In the case of `C[C@@H]1CCCCO[C@H](CN(C)Cc2ccccc2)[C@H](C)CN([C@@H](C)CO)C(=O)c2cc(NC(=O)Nc3ccc(F)cc3)ccc2O1`, the cytotoxicity call with HSkMC was “inactive”. For the same compound, in the assay with HepG2, the cytotoxicity call is “active”. Further, the growth inhibition call in the assay with S. aureus RN4220 is “inactive”.
Regarding `CC(=O)NCCOCCOCC(=O)N[C@@H]1C/C=C/CCC(=O)N[C@H](c2ccccc2)COC1=O`, the cytotoxicity call with HSkMC and in the assay with HepG2 was “inactive” each time. Besides, the growth inhibition call in the assay on S. aureus RN4220 is “inactive”.
Consider `NC[C@H]1CN(Cc2ccc(F)cc2)CCO1`, for which the cytotoxicity call in the assay with HSkMC and with HepG2 was “inactive” in each case. In addition, the growth inhibition call in the assay on S. aureus RN4220 is “inactive”.
In the case of `O=C(COc1ccccc1)Nc1nn[nH]n1`, the cytotoxicity call in the assay with HSkMC and with HepG2 was “inactive” in each case. The growth inhibition call with S. aureus RN4220 is “inactive”.
On to `C[C@H](CO)N1C[C@H](C)[C@H](CN(C)S(C)(=O)=O)OCCCC[C@H](C)Oc2ccc(NS(=O)(=O)c3ccc(F)cc3)cc2C1=O`, for which the cytotoxicity call in the assay with HSkMC and in the assay on HepG2 was “inactive” each time. In the assay with S. aureus RN4220, the growth inhibition call is “inactive”.
`Nc1ncnc2c1ncn2[C@H]1O[C@@H](C(=O)N2CCN(CC(=O)Nc3cccc4c3CNC4=O)CC2)[C@H](O)[C@@H]1O`: the cytotoxicity call in the assay on HSkMC and in the assay with HepG2 was “inactive” each time. In addition, the growth inhibition call with S. aureus RN4220 was “inactive”.
For the compound `COc1ccc(CN(C)C[C@@H]2OCCCC[C@@H](C)Oc3ccc(NC(=O)Nc4ccc(OC)cc4)cc3C(=O)N([C@@H](C)CO)C[C@H]2C)cc1`, the cytotoxicity call with HSkMC and in the assay with HepG2 was “inactive” throughout. Also, the growth inhibition call in the assay with S. aureus RN4220 was “inactive”.
Consider `O=C(O)c1ccc(O)cn1`, for which the cytotoxicity call in the assay with HSkMC and with HepG2 was “inactive” throughout. Also, the growth inhibition call in the assay on S. aureus RN4220 is “inactive”.
As to `C[C@@H]1CN([C@@H](C)CO)S(=O)(=O)c2ccc(C#CCN(C)C)cc2O[C@H]1CN(C)Cc1ccncc1`, the cytotoxicity call in the assay with HSkMC and with HepG2 was “inactive” each time. The growth inhibition call in the assay with S. aureus RN4220 is “inactive”.
Regarding `C[C@@H]1CN([C@H](C)CO)C(=O)c2cc(Br)cnc2O[C@@H]1CN(C)S(=O)(=O)c1ccc(F)cc1`, the cytotoxicity call in the assay on HSkMC and with HepG2 was “inactive” throughout. Moreover, the growth inhibition call with S. aureus RN4220 was “inactive”.
As for `Cn1cnc(S(=O)(=O)N[C@@H]2CC[C@H](CC(=O)Nc3ccccc3)O[C@@H]2CO)c1`, the cytotoxicity call in the assay on HSkMC and in the assay on HepG2 was “inactive” throughout. Also, the growth inhibition call in the assay with S. aureus RN4220 was “inactive”.
As for `C[C@H](CO)N1C[C@H](C)[C@@H](CN(C)C(=O)Nc2ccc(C(F)(F)F)cc2)Oc2c(NC(=O)CCCCCC(=O)Nc3ccccc3N)cccc2C1=O`, the cytotoxicity call in the assay on HSkMC and in the assay with HepG2 was “inactive” throughout. For the same compound, the growth inhibition call with S. aureus RN4220 was “inactive”.
As to `C[C@H]1CN([C@@H](C)CO)C(=O)Cc2cc(N(C)C)ccc2O[C@H]1CN(C)S(=O)(=O)c1cn(C)cn1`, the cytotoxicity call in the assay on HSkMC and in the assay on HepG2 was “inactive” in each case. Besides, the growth inhibition call in the assay on S. aureus RN4220 is “inactive”.
In the case of `O=C(C[C@@H]1CC=CCC[C@@H](Cc2ccc(F)cc2)C(=O)OC[C@H](Cc2c[nH]c3ccccc23)NC1=O)N[C@H](CO)Cc1ccccc1`, in the assay with HSkMC, the cytotoxicity call was “inactive”. The cytotoxicity call in the assay on HepG2 is “active”. Besides, the growth inhibition call in the assay with S. aureus RN4220 was “inactive”.
With `COCCN1CCN(C)C2(CCN(C(=O)[C@H]3CCCO3)CC2)C1=O`, the cytotoxicity call in the assay on HSkMC and with HepG2 was “inactive” each time. Moreover, the growth inhibition call in the assay on S. aureus RN4220 was “inactive”.
Consider `C[C@H](CO)N1C[C@H](C)[C@@H](CN(C)C(=O)c2ccc3c(c2)OCO3)Oc2ncc(C#CCN(C)C)cc2C1=O`, for which the cytotoxicity call with HSkMC and with HepG2 was “inactive” each time. For the same compound, the growth inhibition call with S. aureus RN4220 was “inactive”.
As to `C[C@@H]1CN([C@@H](C)CO)S(=O)(=O)c2ccc(C#CC3CC3)cc2O[C@H]1CN(C)Cc1cccc(F)c1`, the cytotoxicity call in the assay on HSkMC and in the assay with HepG2 was “inactive” each time. Moreover, the growth inhibition call in the assay with S. aureus RN4220 is “inactive”.
As for `CC(C)NC(=O)N(C)C[C@@H]1OCCCC[C@@H](C)Oc2ccc(NC(=O)CCCCCC(=O)Nc3ccccc3N)cc2C(=O)N([C@H](C)CO)C[C@H]1C`, the cytotoxicity call with HSkMC and in the assay with HepG2 was “inactive” in each case. The growth inhibition call in the assay on S. aureus RN4220 was “inactive”.
Regarding `CC(C)NC(=O)N(C)C[C@@H]1Oc2ccc(NS(=O)(=O)c3cccs3)cc2CC(=O)N([C@@H](C)CO)C[C@H]1C`, the cytotoxicity call in the assay with HSkMC and with HepG2 was “inactive” each time. In the assay with S. aureus RN4220, the growth inhibition call is “inactive”.
For the compound `c1ccc2c(c1)[nH]c1ncccc12`, the cytotoxicity call in the assay on HSkMC and in the assay on HepG2 was “inactive” throughout. Moreover, the growth inhibition call with S. aureus RN4220 is “inactive”.
For `N[C@@H](Cc1ccc(F)cc1)C(=O)O`, the cytotoxicity call with HSkMC and with HepG2 was “inactive” in each case. In addition, in the assay with S. aureus RN4220, the growth inhibition call is “inactive”.
Take `O=C(C[C@@H]1C[C@@H]2c3cc(NS(=O)(=O)c4ccccc4)ccc3O[C@@H]2[C@H](CO)O1)NC1CCCCC1`: the cytotoxicity call in the assay on HSkMC and in the assay with HepG2 was “inactive” each time. Also, in the assay with S. aureus RN4220, the growth inhibition call was “inactive”.
`Cc1cc(C)c(S(=O)(=O)Nc2cc([C@@H](C(=O)OC(C)C)C(=O)C(F)(F)F)c(O)c3ccccc23)c(C)c1`: the cytotoxicity call in the assay on HSkMC and with HepG2 was “inactive” in each case. Also, the growth inhibition call in the assay on S. aureus RN4220 was “inactive”.
In the case of `C=CCOC(=O)[C@@H]1[C@H]2C(=O)O[C@H](c3ccccc3)[C@H](c3ccccc3)N2[C@H](c2ccc(OCCOC(=O)[C@H]3C[C@H]4C(=O)N[C@@H](CCCCN(C)C)C(=O)N4[C@H]3c3cccc(OCCO)c3)cc2)[C@@]12C(=O)Nc1ccccc12`, the cytotoxicity call in the assay on HSkMC and in the assay with HepG2 was “inactive” throughout. Also, in the assay on S. aureus RN4220, the growth inhibition call is “inactive”.
For the compound `COc1cccc(C(=O)Nc2ccc3c(c2)C(=O)N(C)[C@@H]2CC[C@@H](CC(=O)NCCCN4CCOCC4)O[C@@H]2CO3)c1`, the cytotoxicity call in the assay on HSkMC (human skeletal muscle cells) and with HepG2 was “inactive” each time. Moreover, in the assay on S. aureus RN4220, the growth inhibition call was “inactive”.
Regarding `CC(C)COCC(CN(Cc1ccccc1)c1ccccc1)N1CCCC1.Cl` (configuration not stated), in the assay with HSkMC, the cytotoxicity call is “inactive”. In addition, in the assay on HepG2, the cytotoxicity call is “active”. Further, in the assay on S. aureus RN4220, the growth inhibition call is “inactive”.
Consider `O=c1occ(CO)c(O)c1CN1CCCCC1`, for which the cytotoxicity call in the assay with HSkMC and with HepG2 was “inactive” in each case. Moreover, the growth inhibition call in the assay with S. aureus RN4220 is “inactive”.
For `C[C@@H]1CCCCO[C@@H](CN(C)C(=O)Nc2ccc3c(c2)OCO3)[C@H](C)CN([C@H](C)CO)C(=O)c2cc(NS(=O)(=O)c3ccc(Cl)cc3)ccc2O1`, the cytotoxicity call with HSkMC and in the assay with HepG2 was “inactive” each time. Besides, in the assay on S. aureus RN4220, the growth inhibition call is “inactive”.
Regarding `C[C@H](CO)N1C[C@H](C)[C@H](CN(C)S(=O)(=O)c2cn(C)cn2)OCc2cn(nn2)CCCC1=O`, the cytotoxicity call in the assay with HSkMC and with HepG2 was “inactive” in each case. Besides, the growth inhibition call in the assay with S. aureus RN4220 was “inactive”.
